Test results: the antibiotic and cytotoxicity screens of Wong et al. (2023)
Some of the results follow.

system: HSkMC (human skeletal muscle cells); assay: cytotoxicity call (relative viability < 0.9); conditions: 10 µM

SMILES	cytotoxicity call
Cc1cccnc1[C@@H](NC(=O)C1CCN(CCOc2ccc(Cl)cc2Cl)CC1)c1ccc(F)cc1	inactive
COc1c2ccoc2cc2oc(C)cc(=O)c12	inactive
COc1ccc(CNC(=O)N(C)C[C@H]2OCc3ccccc3-c3c(n(C)c4ccccc34)C(=O)N([C@H](C)CO)C[C@@H]2C)cc1	inactive
Cc1noc(C)c1S(=O)(=O)Nc1ccc2c(c1)C(=O)N([C@@H](C)CO)C[C@@H](C)[C@@H](CN(C)Cc1ccc(Cl)c(Cl)c1)OCCCC[C@@H](C)O2	inactive
CCCNC(=O)Nc1ccc2c(c1)C(=O)N(C)C[C@H](OC)[C@H](C)CN(Cc1ccc(-c3ccccn3)cc1)[C@@H](C)CO2	inactive
C[C@@H]1CCCCO[C@H](CN(C)C(=O)NC2CCCCC2)[C@H](C)CN([C@@H](C)CO)C(=O)c2cc(NC(=O)Nc3ccc(C(F)(F)F)cc3)ccc2O1	inactive
C[C@@H]1CN([C@@H](C)CO)C(=O)c2cccc(NS(=O)(=O)c3ccc(F)cc3)c2O[C@@H]1CN(C)S(=O)(=O)c1ccccc1	inactive
C[C@@H]1CCCCO[C@H](CN(C)Cc2ccc(C(F)(F)F)cc2)[C@@H](C)CN([C@H](C)CO)C(=O)c2cc(NS(=O)(=O)c3ccc(F)cc3)ccc2O1	inactive
O=C(C[C@@H]1CC[C@H]2[C@@H](COC[C@H](O)CN2S(=O)(=O)c2ccccc2)O1)NCCN1CCCC1	inactive
Cc1c(C)c(C)c(CN)c(C)c1C	inactive
C[C@H](CO)N1C[C@H](C)[C@@H](CN(C)CC2CCCCC2)OCCCC[C@H](C)Oc2ccc(NC(=O)Nc3ccc(F)cc3)cc2C1=O	inactive
Cc1noc(C)c1S(=O)(=O)Nc1ccc2c(c1)CC(=O)N([C@H](C)CO)C[C@H](C)[C@H](CN(C)Cc1ccccc1)O2	inactive
C[C@@H]1CN([C@H](C)CO)C(=O)Cc2cc(NC(=O)Nc3ccc(C(F)(F)F)cc3)ccc2O[C@@H]1CN(C)Cc1ccc(Oc2ccccc2)cc1	active
COc1cccc(S(=O)(=O)N[C@H]2CC[C@H](CCn3cc(-c4ccccc4OC)nn3)O[C@@H]2CO)c1	inactive
C[C@@H]1CN([C@@H](C)CO)C(=O)c2cc(-c3ccc(F)cc3)cnc2O[C@@H]1CN(C)C(=O)Cc1ccccn1	inactive
C[C@@H]1CN([C@H](C)CO)C(=O)c2cc(NC(=O)Cc3ccccc3)ccc2O[C@@H]1CN(C)S(C)(=O)=O	inactive
C[C@H](CO)N1C[C@H](C)[C@H](CN(C)C(=O)NC2CCCC2)Oc2cc(-c3cncnc3)ccc2S1(=O)=O	inactive
Cc1scc2c1N(C(=O)CN1CCN(C)CC1)c1ccccc1NC2=O.Cl	inactive
C/C=C/c1cnc2c(c1)C(=O)N([C@H](C)CO)C[C@H](C)[C@@H](CN(C)S(=O)(=O)c1ccc(OC)cc1)O2	inactive
O=C1N[C@@H](Cc2c[nH]c3ccccc23)COC(=O)[C@@H](Cc2ccc(F)cc2)CC=CC[C@@H]1CC(=O)N(CCO)Cc1ccccc1	inactive

SMILES	cytotoxicity call
COCC#Cc1ccc([C@H]2[C@H](CO)N3C(=O)CN(C(=O)c4cccnc4)C[C@@H]23)cc1	inactive
COc1ccc(S(=O)(=O)N(C)C[C@H]2Oc3ccc(N(C)C)cc3C(=O)N([C@H](C)CO)C[C@H]2C)cc1	inactive
C[C@H]1CCCCO[C@@H](CN(C)CC2CCCCC2)[C@@H](C)CN([C@@H](C)CO)C(=O)c2cc(NC(=O)NC3CCCCC3)ccc2O1	inactive
C[C@H](CO)N1C[C@H](C)[C@H](CN(C)Cc2ccc(-c3ccccc3)cc2)Oc2ccc(NC(=O)CCC(F)(F)F)cc2CC1=O	inactive
C[C@@H]1CN([C@@H](C)CO)C(=O)c2cc(NS(=O)(=O)c3ccc(F)cc3)ccc2O[C@@H](C)CCCCO[C@@H]1CN(C)C(=O)CCC(F)(F)F	inactive
CN1C(=O)c2cc(NC(=O)c3cscn3)ccc2OC[C@@H]2O[C@@H](CC(=O)N3CCOCC3)CC[C@H]21	inactive
O=C(C[C@H]1CC[C@@H](NC(=O)CN2CCOCC2)[C@H](CO)O1)NCCc1ccccc1	inactive
CC(C)NC(=O)Nc1ccc2c(c1)C(=O)N([C@@H](C)CO)C[C@H](C)[C@@H](CN(C)CC1CCCCC1)OCCCC[C@@H](C)O2	inactive
CC(C)NC(=O)Nc1ccc2c(c1)C(=O)N(C)[C@H]1CC[C@H](CC(=O)NCc3ccc(F)cc3)O[C@@H]1CO2	inactive
Cc1ncc([N+](=O)[O-])n1C[C@@H](C)O	inactive
CCCN(C)C[C@@H]1OCCCC[C@@H](C)Oc2ccc(NS(C)(=O)=O)cc2C(=O)N([C@@H](C)CO)C[C@@H]1C	inactive
O=C(NCC(F)(F)F)[C@H]1[C@H](CO)[C@H]2Cn3c(cccc3=O)[C@@H]1N2C(=O)C1CCC1	inactive
C[C@H](CO)N1C[C@H](C)[C@H](CN(C)Cc2ccc(-c3ccccc3)cc2)Oc2ccc(NC(=O)NC3CCCCC3)cc2CC1=O	inactive
C[C@@H]1CN([C@H](C)CO)C(=O)c2cc(NC(=O)CCCN(C)C)ccc2O[C@@H]1CN(C)C(=O)Nc1ccc2c(c1)OCO2	inactive
C[C@@H]1CN([C@H](C)CO)C(=O)c2cccc(NS(=O)(=O)c3cccs3)c2O[C@H]1CN(C)CC1CC1	inactive
CS(=O)(=O)c1ncc(Cl)c(C(=O)NCCc2ccc(S(N)(=O)=O)cc2)n1	inactive
C[C@H]1CN([C@@H](C)CO)C(=O)c2cc(NC(=O)C3CC3)ccc2O[C@@H]1CN(C)S(=O)(=O)c1ccc(F)cc1	inactive
CCCCS(=N)(=O)CC[C@@H](N)C(=O)O (stereo not given in full)	inactive
C[C@H](CO)N1C[C@H](C)[C@H](CN(C)S(=O)(=O)c2ccc(Cl)cc2)Oc2ccc(NS(C)(=O)=O)cc2CC1=O	inactive
O=C(NCc1ccc2c(c1)OCO2)[C@H]1[C@H](CO)[C@H]2Cn3c(cccc3=O)[C@@H]1N2Cc1cncnc1	inactive
